Experimental data from patent publication US20230120736A1, “ANTI-CD98 ANTIBODIES AND ANTIBODY DRUG CONJUGATES” (AbbVie Inc., priority 2016, published 2023).

Tests used:
[1] = Size exclusion chromatography, % aggregate fraction of ADC; type: physicochemical; conditions: ADCs of Table 27
Method: Size exclusion chromatography was performed using a Shodex KW802.5 column in 0.2M potassium phosphate pH 6.2 with 0.25 mM potassium chloride and 15% IPA at a flow rate of 0.75 ml/min. The peak area absorbance at 280 nm was determined for each of the high molecular weight and monomeric eluents by integration of the area under the curve. The % aggregate fraction of the conjugate sample was determined by dividing the peak area absorbance at 280 nm for the high molecular weight eluent by the sum of the peak area absorbances at […] of the high molecular weight and monomeric eluents multiplied by 100%.

[2] = test system: NCI-H146 (human small cell lung cancer) xenograft; test: NCI-H146 xenograft tumor growth inhibition; type: in vivo, mouse; conditions: single dose 10 mg/kg/day QDx1/IP
Method: The in vivo efficacy of anti-CD98 hybridoma mAb conjugates were tested using Ab3-CZ and Ab5-CZ as examples in NCI-H146 (human small cell lung cancer) xenograft model. […] The cells were cultured as monolayers in RPMI-1640 culture media (Invitrogen, Carlsbad, Calif.) that was supplemented with 10% Fetal Bovine Serum (FBS, Hyclone, Logan, Utah). To generate xenografts, 5×10^6 (NCI-H146) viable cells were inoculated subcutaneously into the right flank of immune deficient female SCID-bg mice (Charles River Laboratories, Wilmington, Mass.). The injection volume was 0.2 mL and composed of Matrigel (BD, Franklin Lakes, N.J.). Tumors were size matched at approximately 212 mm^3. Antibodies and conjugates were formulated in phosphate buffered saline, pH 7.2 and injected intraperitoneally. […] Therapy began within 24 hours after size matching of the tumors. Mice weighed approximately 21 g at the onset of therapy. Tumor volume was estimated two to three times weekly. Measurements of the length (L) and width (W) of the tumor were taken via electronic caliper and the volume was calculated according to the following equation: V=L×W^2/2. Mice were euthanized when tumor volume reached 3,000 mm^3 or skin ulcerations occurred. Eight mice were housed per cage. Food and water were available ad libitum. Mice were acclimated to the animal facilities for a period of at least one week prior to commencement of experiments. Animals were tested in the light phase of a 12-hour light: 12-hour dark schedule (lights on at 06:00 hours). Anti-CD98 conjugates (10 mg/kg) were administered as a single dose (QDx1) intraperitoneally. A human IgG control antibody (MSL109, a humanized IgG1 antibody that binds to cytomegalovirus (CMV) glycoprotein H) was used as a negative control agent.
To refer to efficacy of therapeutic agents, parameters of amplitude (TGImax), durability (TGD) and response frequency (CR, PR, OR) of therapeutic response are used. The efficacy of inhibition of NCI-H146 xenografts growth with CD98-targeted ADCs is illustrated by Table 6, below. In the tables, to refer to efficacy, parameters of amplitude (TGImax) and durability (TGD) of therapeutic response are used. TGImax is the maximum tumor growth inhibition during the experiment. Tumor growth inhibition is calculated by 100*(1−Tv/Cv) where Tv and Cv are the mean tumor volumes of the treated and control groups, respectively. TGD or tumor growth delay is the extended time of a treated tumor needed to reach a volume of 1 cm^3 relative to the control group. TGD is calculated by 100*(Tt/Ct−1) where Tt and Ct are the median time periods to reach 1 cm^3 of the treated and control groups, respectively. Distribution of the response amplitude in a specific group is given by the frequency of complete responders (CR), partial responders (PR), and overall responders (OR). CR is the percentage of mice within a group with a tumor burden of 25 mm^3 for at least three measurements. PR is the percentage of mice within a group with a tumor burden larger than 25 mm^3 but less than one-half of the volume at onset of treatment for at least three measurements. OR is the sum of CR and PR.
The in vivo anti-tumor efficacy of selected humanized anti-CD98 mAb conjugates were tested in NCI-H146 (human small cell lung cancer) xenograft model, as described in Example 6. Tumor growth inhibition was reported as TGImax in Table 28.

[3] = DAR determination by LC-MS
Method: LC-MS analysis was performed using an Agilent 1100 HPLC system interfaced to an Agilent LC/MSD TOF 6220 ESI mass spectrometer. The ADC was reduced with 5 mM (final concentration) BOND-BREAKER TCEP solution (Thermo Scientific, Rockford, Ill.), loaded onto a Protein Microtrap (Michrom Bioresorces, Auburn, Calif.) desalting cartridge, and eluted with a gradient of 10% B to 75% B in 0.2 minutes at ambient temperature. Mobile phase A was H2O with 0.1% formic acid (FA), mobile phase B was acetonitrile with 0.1% FA, and the flow rate was 0.2 ml/min. Electrospray-ionization time-of-flight mass spectra of the co-eluting light and heavy chains were acquired using Agilent MassHunter™ acquisition software. The extracted intensity vs. m/z spectrum was deconvoluted using the Maximum Entropy feature of MassHunter software to determine the mass of each reduced antibody fragment. DAR was calculated from the deconvoluted spectrum by summing intensities of the naked and modified peaks for the light chain and heavy chain, normalized by multiplying intensity by the number of drugs attached. The summed, normalized intensities were divided by the sum of the intensities, and the summing results for two light chains and two heavy chains produced a final average DAR value for the full ADC.

[4] = ADCs of Table 28 (NCI-H146 xenograft study)

B1: CD98 (CL-huAb104)-CZ (conjugate)
heavy: EVQLVESGGGLVQPGGSLRLSCATSGFTFIDYYMSWVRQAPGKGLEWLGFIRNKAYGYTTEYSASVKGRFTISRDNSKSILYLQMNSLKTEDTAVYYCTRDRPAWFVYWGQGTLVTVSSASTKGPSVFPLAPSSKSTSGGTAALGCLVKDYFPEPVTVSWNSGALTSGVHTFPAVLQSSGLYSLSSVVTVPSSSLGTQTYICNVNHKPSNTKVDKKV[omitted - human IgG1 Fc with changes]
light: DIVMTQTPLSLPVTPGEPASISCKSSQSLLYSSNQKNYLAWYLQKPGQSPQLLIYWASTRESGVPDRFSGSGSGTDFTLKISRVEAEDVGVYYCQQYYSYPYTFGGGTKVEIKRTVAAPSVFIFPPSDEQLKSGTASVVCLLNNFYPREAKVQWKVDNALQSGNSQESVTEQDSKDSTYSLSSTLTLSKADYEKHKVYACEVTHQGLSSPVTKSFNRGEC
% agg by SEC [1]: 12.7% | TGImax [2]: 90% | DAR by MS ([3]; ADCs of Table 27): 3.3 | DAR by MS [3, 4]: 2.6

B2: CD98 (CL-huAb108)-CZ (conjugate)
heavy: EVQLVQSGAEVKKPGASVKVSCKASGFTFSDYTMAWVRQAPGQGLEWVATIIYSGRGTYYRDAVKGRFTITRDNSTSTLYLELSSLRSEDTAVYYCARQSDDTYYYWGYFDYWGQGTMVTVSSASTKGPSVFPLAPSSKSTSGGTAALGCLVKDYFPEPVTVSWNSGALTSGVHTFPAVLQSSGLYSLSSVVTVPSSSLGTQTYICNVNHKPSNTKVDKKV[omitted - human IgG1 Fc with changes]
light: DIVMTQTPLSLPVTPGEPASINCKSSQSLLFSGNQKNYLAWYLQKPGQSPQLLIYWASTRQSGVPDRFSGSGSGTDFTLKISRVEAEDVGIYYCQQYYDVPYTFGQGTKLEIKRTVAAPSVFIFPPSDEQLKSGTASVVCLLNNFYPREAKVQWKVDNALQSGNSQESVTEQDSKDSTYSLSSTLTLSKADYEKHKVYACEVTHQGLSSPVTKSFNRGEC
% agg by SEC [1]: 4.8% | TGImax [2]: 93% | DAR by MS ([3]; ADCs of Table 27): 2.9 | DAR by MS [3, 4]: 3.2

B3: CD98 (CL-huAb110)-CZ (conjugate)
heavy: EVQLVQSGAEVKKPGASVKVSCKASGFTFSDYTMAWVRQAPGQGLEWVATIIYDARGTYYRDAVKGRFTITRDNSTSTLYLELSSLRSEDTAVYYCARQSDDTYYYWGYFDYWGQGTMVTVSSASTKGPSVFPLAPSSKSTSGGTAALGCLVKDYFPEPVTVSWNSGALTSGVHTFPAVLQSSGLYSLSSVVTVPSSSLGTQTYICNVNHKPSNTKVDKKV[omitted - human IgG1 Fc with changes]
light: DIVMTQTPLSLPVTPGEPASINCKSSQSLLFSGNQKNYLAWYLQKPGQSPQLLIYWASTRQSGVPDRFSGSGSGTDFTLKISRVEAEDVGIYYCQQYYSSPYTFGQGTKLEIKRTVAAPSVFIFPPSDEQLKSGTASVVCLLNNFYPREAKVQWKVDNALQSGNSQESVTEQDSKDSTYSLSSTLTLSKADYEKHKVYACEVTHQGLSSPVTKSFNRGEC
% agg by SEC [1]: 4.9% | TGImax [2]: 92% | DAR by MS ([3]; ADCs of Table 27): 4.1 | DAR by MS [3, 4]: 2.9

B4: CD98 (CL-huAb102)-TX (conjugate)
heavy: EVQLVESGGGLVQPGGSLRLSCATSGFTFIDYYMSWVRQAPGKGLEWLGFIRNKANRYTTEYSASVKGRFTISRDNSKSILYLQMNSLKTEDTAVYYCTRDRPAWFVYWGQGTLVTVSSASTKGPSVFPLAPSSKSTSGGTAALGCLVKDYFPEPVTVSWNSGALTSGVHTFPAVLQSSGLYSLSSVVTVPSSSLGTQTYICNVNHKPSNTKVDKKV[omitted - human IgG1 Fc with changes]
light: DIVMTQTPLSLPVTPGEPASISCKSSQSLLYSSNQKNYLAWYLQKPGQSPQLLIYWASTRESGVPDRFSGSGSGTDFTLKISRVEAEDVGVYYCQQYYSYPYTFGGGTKVEIKRTVAAPSVFIFPPSDEQLKSGTASVVCLLNNFYPREAKVQWKVDNALQSGNSQESVTEQDSKDSTYSLSSTLTLSKADYEKHKVYACEVTHQGLSSPVTKSFNRGEC
% agg by SEC [1]: 1.0% | TGImax [2]: 92% | DAR by MS ([3]; ADCs of Table 27): 2.0 | DAR by MS [3, 4]: 1.8

B5: CD98 (CL-huAb102)-WD (conjugate)
heavy: EVQLVESGGGLVQPGGSLRLSCATSGFTFIDYYMSWVRQAPGKGLEWLGFIRNKANRYTTEYSASVKGRFTISRDNSKSILYLQMNSLKTEDTAVYYCTRDRPAWFVYWGQGTLVTVSSASTKGPSVFPLAPSSKSTSGGTAALGCLVKDYFPEPVTVSWNSGALTSGVHTFPAVLQSSGLYSLSSVVTVPSSSLGTQTYICNVNHKPSNTKVDKKV[omitted - human IgG1 Fc with changes]
light: DIVMTQTPLSLPVTPGEPASISCKSSQSLLYSSNQKNYLAWYLQKPGQSPQLLIYWASTRESGVPDRFSGSGSGTDFTLKISRVEAEDVGVYYCQQYYSYPYTFGGGTKVEIKRTVAAPSVFIFPPSDEQLKSGTASVVCLLNNFYPREAKVQWKVDNALQSGNSQESVTEQDSKDSTYSLSSTLTLSKADYEKHKVYACEVTHQGLSSPVTKSFNRGEC
% agg by SEC [1]: 0% | DAR by MS ([3]; ADCs of Table 27): 1.4

B6: CD98 (CL-huAb110)-WD (conjugate)
heavy: EVQLVQSGAEVKKPGASVKVSCKASGFTFSDYTMAWVRQAPGQGLEWVATIIYDARGTYYRDAVKGRFTITRDNSTSTLYLELSSLRSEDTAVYYCARQSDDTYYYWGYFDYWGQGTMVTVSSASTKGPSVFPLAPSSKSTSGGTAALGCLVKDYFPEPVTVSWNSGALTSGVHTFPAVLQSSGLYSLSSVVTVPSSSLGTQTYICNVNHKPSNTKVDKKV[omitted - human IgG1 Fc with changes]
light: DIVMTQTPLSLPVTPGEPASINCKSSQSLLFSGNQKNYLAWYLQKPGQSPQLLIYWASTRQSGVPDRFSGSGSGTDFTLKISRVEAEDVGIYYCQQYYSSPYTFGQGTKLEIKRTVAAPSVFIFPPSDEQLKSGTASVVCLLNNFYPREAKVQWKVDNALQSGNSQESVTEQDSKDSTYSLSSTLTLSKADYEKHKVYACEVTHQGLSSPVTKSFNRGEC
% agg by SEC [1]: 4.8% | DAR by MS ([3]; ADCs of Table 27): 1.8

B7: CD98 (CL-huAb102)-CZ (conjugate)
heavy: EVQLVESGGGLVQPGGSLRLSCATSGFTFIDYYMSWVRQAPGKGLEWLGFIRNKANRYTTEYSASVKGRFTISRDNSKSILYLQMNSLKTEDTAVYYCTRDRPAWFVYWGQGTLVTVSSASTKGPSVFPLAPSSKSTSGGTAALGCLVKDYFPEPVTVSWNSGALTSGVHTFPAVLQSSGLYSLSSVVTVPSSSLGTQTYICNVNHKPSNTKVDKKV[omitted - human IgG1 Fc with changes]
light: DIVMTQTPLSLPVTPGEPASISCKSSQSLLYSSNQKNYLAWYLQKPGQSPQLLIYWASTRESGVPDRFSGSGSGTDFTLKISRVEAEDVGVYYCQQYYSYPYTFGGGTKVEIKRTVAAPSVFIFPPSDEQLKSGTASVVCLLNNFYPREAKVQWKVDNALQSGNSQESVTEQDSKDSTYSLSSTLTLSKADYEKHKVYACEVTHQGLSSPVTKSFNRGEC
TGImax [2]: 93% | DAR by MS [3, 4]: 2.9
